# Assay results reported in PubChem BioAssay AID624417 (National Center for Advancing Translational Sciences (NCATS), 2012).
# The whole screen tested about 410,000 compounds, of which about 6,400 (1.6%) were called active. Inconclusive results, whose numbers are uncertain, are shown with a selection of clear calls. The call rests on the fitted dose curve; in most records, active means well fitted inhibition curve with a large enough effect; inconclusive means small, poorly fitted or top-dose-only effect; inactive means no such curve, though single readings can be large or run the other way. Potencies of inconclusive entries are left out as doubtful fits.
# Biological target: Glucagon-like peptide 1 receptor (Homo sapiens) (UniProt P43220)
# Test: qHTS of GLP-1 Receptor Inverse Agonists (Inhibition Mode); further: nearly all actives have a fitted effect of over 55% in size
# Conditions: HEK293 GLP-1R CRE-luciferase, luminescence, 24 h, GLP-1R form is constitutively active; series mostly up to 38.3 µM
# Summary of the method: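 Inverse agonists were sought by their lowering of basal cAMP reporter luciferase output in HEK293 cells stably carrying constitutively active human GLP-1R, after 24 h compound treatment.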
# Potency means the concentration at half of the fitted maximal effect; tags describe the fitted curve by direction and shape.
# UniProt P43220, sequence (P43220 whole entry, looked up): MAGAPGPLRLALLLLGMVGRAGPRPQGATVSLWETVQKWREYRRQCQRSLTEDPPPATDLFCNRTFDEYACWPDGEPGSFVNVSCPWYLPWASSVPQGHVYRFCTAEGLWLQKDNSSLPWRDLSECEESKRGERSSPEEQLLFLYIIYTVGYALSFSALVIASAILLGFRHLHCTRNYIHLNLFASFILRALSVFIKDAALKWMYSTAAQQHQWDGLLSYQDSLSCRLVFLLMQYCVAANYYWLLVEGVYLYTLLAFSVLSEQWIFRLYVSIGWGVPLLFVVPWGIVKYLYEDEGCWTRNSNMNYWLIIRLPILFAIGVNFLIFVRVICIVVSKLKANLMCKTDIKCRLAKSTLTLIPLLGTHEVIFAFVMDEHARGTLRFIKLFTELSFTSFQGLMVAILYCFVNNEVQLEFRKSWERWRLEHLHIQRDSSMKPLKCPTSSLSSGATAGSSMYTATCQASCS
row,Compound,Potency
1,Cc1ccc(Cn2c(=O)c3c(nc4n3CCN4c3cc(C)cc(C)c3)n(C)c2=O)cc1,inactive
2,O=C(COc1ccc(Br)cc1)NCCCNC(=O)c1ccncc1,"inconclusive [inhibitor, single point]"
3,COc1ccc(C(OCC(O)CN(C)C2CCCCC2)c2ccc(OC)cc2)cc1 (stereo not given),"inconclusive [inhibitor, partial curve, poor fit]"
4,CS(=O)(=O)c1ccccc1COC(=O)Nc1ccc(Cl)cc1,inactive
5,O=C(N/N=C/c1ccccc1O)c1ccc2c(c1)OCO2,"inconclusive [inhibitor, full curve]"
6,C=CCOC(=O)N1CCC2CC1c1c(-c3ccc(C(F)(F)F)cc3)cccc12 (stereo not given),"inconclusive [inhibitor, single point]"
7,Cc1ccc(NC(=O)c2cccs2)cc1S(=O)(=O)Nc1cccc(Cl)c1,"inconclusive [inhibitor, partial curve, poor fit]"
8,CC1=CC(C)(C)N(S(=O)(=O)c2ccc(F)cc2)c2ccc(C)cc21,"inconclusive [inhibitor, partial curve, poor fit]"
9,CC(=O)N1N=C(c2cccc([N+](=O)[O-])c2)OC1c1ccc(Cl)cc1Cl (stereo not given),"inconclusive [inhibitor, partial curve, poor fit]"
10,O=c1c2ccccc2nc2n1C(CSCc1cccc(C(F)(F)F)c1)CS2 (stereo not given),"inconclusive [inhibitor, full curve, poor fit]"
11,Cc1ccc(NNC(=O)c2cc(C(C)(C)C)nn2Cc2ccccc2)cc1,active: 3.16 µM
12,O=C(C[C@@H]1C/C=C\C[C@H](Cc2ccc(F)cc2)C(=O)OC[C@H]2CCCN2C1=O)N[C@H](CO)Cc1ccccc1,inactive
13,c1ccc(-c2nnc(-c3c[nH]c4ccccc34)nc2-c2ccccc2)cc1,"inconclusive [inhibitor, full curve]"
14,O=C(/C=C/c1ccccc1)NCCSCc1ccccc1Cl,"inconclusive [inhibitor, partial curve, poor fit]"
15,O=C(Nc1ccc(Cl)c(C(F)(F)F)c1)C(=O)N1CCCCC1,"inconclusive [inhibitor, single point]"
16,CCCCCN(C(=O)CCC(=O)OCc1cccc(C)c1)c1c(N)n(CCCC)c(=O)[nH]c1=O,"inconclusive [inhibitor, partial curve, poor fit]"
17,Cc1ccc(NC(=O)CSc2ncnc3ccccc23)cc1S(=O)(=O)N1CCCCCC1,"inconclusive [inhibitor, single point]"
18,COc1ccccc1/C=C/CN1CCC(Oc2ccc(C(=O)N3CCCC3)cc2)CC1,"inconclusive [inhibitor, partial curve]"
19,CC(C)(C)OC(=O)NC(CNCc1ccccc1)Cc1ccccc1 (stereo not given),"inconclusive [inhibitor, single point]"
20,Cc1nc2sc(C(c3cccs3)N3CCC4(CC3)OCCO4)c(O)n2n1 (stereo not given),inactive

row,Compound,Potency
1,Cc1ccc(CN(C)C(=O)c2ccc(S(=O)(=O)N(C)c3ccccc3)cc2)o1,"inconclusive [inhibitor, single point]"
2,O=C(Nc1ccccc1)c1[nH]ncc1[N+](=O)[O-],inactive
3,CC(C)C[C@H]1CNC(=O)C(=O)N1CC1CCN(CCc2ccc(-c3ccccc3)cc2)CC1,"inconclusive [inhibitor, single point]"
4,CCOC(=O)Cc1csc(N/N=C\c2ccc(N(C)C)cc2)n1,inactive
5,CCCCOc1ccc(S(=O)(=O)Nc2cccc(-c3ccc(N4CCOCC4)nn3)c2)cc1,"inconclusive [inhibitor, single point]"
6,CC(C)C(=O)NC(c1ccccc1Cl)c1c(O)ccc2ccccc12 (stereo not given),inactive
7,CCOc1ccccc1/C=C(/NC(=O)c1ccccc1)C(=O)NC(C)c1ccccc1 (stereo not given),"inconclusive [inhibitor, single point]"
8,CCN1C(=O)CC(C(=O)Nc2ccc(F)cc2)SC1=Nc1ccc2c(c1)OCO2 (stereo not given),"inconclusive [inhibitor, single point]"
9,COc1cccc(/C=N/NC(=O)COc2cccc3cccnc23)c1O,"inconclusive [inhibitor, partial curve, poor fit]"
10,c1ccc(Nc2scc(-c3ccccc3)[n+]2Cc2ccco2)cc1,"inconclusive [inhibitor, single point]"
11,C[C@@H]1CCC[C@H](C)N1Cc1nc(Cc2ccccc2Cl)no1,"inconclusive [inhibitor, single point]"
12,Cc1cccc(N(Cc2ccccc2)C(=O)c2cccc(S(=O)(=O)N3CC(C)OC(C)C3)c2)c1 (stereo not given),"inconclusive [inhibitor, partial curve, poor fit]"
13,O=C(CNc1cccc2ccccc12)N/N=C/c1ccc([N+](=O)[O-])o1,"inconclusive [inhibitor, single point]"
14,Cn1c(Cc2ccccc2)[n+](C)c2ccccc21,"inconclusive [inhibitor, partial curve, poor fit]"
15,CC[C@H]1c2[nH]c3ccc(C(C)C)cc3c2[C@@H]2CCN3C(=O)CCC[C@H]1[C@H]23,"inconclusive [inhibitor, partial curve, poor fit]"
16,CN(CC1CCCN(CCc2ccc(Cl)cc2)C1)C(=O)C(=O)c1ccco1 (stereo not given),"inconclusive [inhibitor, single point]"
17,CCCN(CCC)Cc1c(C(=O)N/N=C/c2c[nH]c3ccccc23)nnn1-c1nonc1N,"inconclusive [inhibitor, partial curve, poor fit]"
18,C=CCn1c(Cc2c(C)[nH]c3ccccc23)nnc1SCC(=O)NCc1ccc(F)cc1,"inconclusive [inhibitor, partial curve, poor fit]"
19,CC(C)(C)c1cc(C(=O)N2CCc3ccccc32)ccn1,inactive
20,CC(OC(=O)c1ccc2c(c1)NC(=O)CS2)C(=O)c1ccc(F)cc1 (stereo not given),"inconclusive [inhibitor, single point]"
